Out of some 220,000 compounds screened, about 16,000 (7.3%) were called active. Inconclusive results, whose numbers are uncertain, are shown with a selection of clear calls. Calls follow the shape of the dose curve; as a rule, active = well fitted inhibition curve with a large enough effect (not every such curve was filed as active); inconclusive = small, poorly fitted or top-dose-only effect, or another doubt; inactive = no such curve, though single readings can be large or run the other way. Potencies of inconclusive entries are doubtful fits and often do not repeat.
Biological target: Aldehyde dehydrogenase 1A1 (Homo sapiens) (UniProt P00352)
UniProt P00352, sequence (P00352 whole entry, looked up): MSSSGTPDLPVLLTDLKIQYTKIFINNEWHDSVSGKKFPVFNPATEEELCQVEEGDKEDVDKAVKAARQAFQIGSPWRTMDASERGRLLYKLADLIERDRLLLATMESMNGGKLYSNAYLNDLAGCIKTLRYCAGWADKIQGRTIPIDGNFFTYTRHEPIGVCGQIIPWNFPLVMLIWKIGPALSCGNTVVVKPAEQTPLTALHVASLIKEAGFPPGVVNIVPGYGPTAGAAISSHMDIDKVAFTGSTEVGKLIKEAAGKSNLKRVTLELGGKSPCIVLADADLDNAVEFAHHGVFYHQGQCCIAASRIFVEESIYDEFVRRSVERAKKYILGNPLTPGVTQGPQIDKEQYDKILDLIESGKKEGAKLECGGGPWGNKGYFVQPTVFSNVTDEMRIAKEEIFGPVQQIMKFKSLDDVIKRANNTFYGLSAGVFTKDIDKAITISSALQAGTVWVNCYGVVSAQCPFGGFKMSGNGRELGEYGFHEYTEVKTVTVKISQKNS
Test: qHTS Assay for Inhibitors of Aldehyde Dehydrogenase 1 (ALDH1A1);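 as to activity, negative = inhibition: plate controls were no enzyme wells and a reference inhibitor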
Conditions: Purified ALDH1A1, NADH fluorescence, propionaldehyde substrate; series mostly up to 75.3 µM; activity, negative = inhibition: at the top concentration
Potency is read from the fitted curve at half-maximal effect; tags tell the direction and shape of the fitted curve.

Potency, active:
Cc1ccc2[nH]c3c(c2c1)CN(C(=O)CN1CCN(c2ccccn2)CC1)CC3 10 µM
CCc1nc(OCc2ccccc2)c2sc3nc4c(cc3c2n1)COC(C)(C)C4 0.794 µM
O=C(NN=C1CCCC1)c1[nH]c2ccc(Br)cc2c1-c1ccccc1 17.8 µM
O=C(NC(=S)NNC(=O)c1cnccn1)c1ccc(F)cc1 28.2 µM
COc1ccc(N=C2SC(C(=O)N3CCN(c4ccc([N+](=O)[O-])cc4)CC3)CC(=O)N2C)cc1 (configuration not stated) 10 µM
Cc1ccccc1-n1nnnc1SCC(=O)Nc1ccc(S(=O)(=O)N2CCCC2)cc1 3.98 µM
C/C(=N\Nc1nc2c(s1)CCCC2)c1ccccc1 25.1 µM
COc1cccc(C(=O)Nc2sc3c(c2C#N)CCN(C(C)=O)C3)c1 8.91 µM

Potency, inconclusive:
CCn1c(=O)cc(SCC(=O)N2CCN(Cc3ccc4c(c3)OCO4)CC2)c2ccccc21 39.8 µM [inhibitor, single point]
O=C(ON=C1CCN(c2ccc([N+](=O)[O-])cc2)CC1)c1ccccc1 25.1 µM [inhibitor, single point]
CC(=O)N1[C@H](C)C=C[C@]1(Cc1ccccc1)C(=O)NCc1ccc(C)o1 39.8 µM [inhibitor, single point]
CCCC(C)C(=O)Nc1nc(C)c(-c2csc(Nc3ccccc3OC)n2)s1 (configuration not stated) 20 µM [inhibitor, partial curve]
O=C(c1ccccc1)C1CCN(c2ncccc2[N+](=O)[O-])CC1 25.1 µM [inhibitor, single point]
Cc1nc2cnc(N3CCOCC3)nc2n(CCC#N)c1=O 31.6 µM [inhibitor, single point]
COc1ccccc1NC(CC(=O)c1ccccc1)C(=O)OCC(=O)c1ccc(Br)cc1 (configuration not stated) 7.94 µM [inhibitor, full curve]
CC(C)Cc1cc(C(=O)Nc2cccnc2)no1 25.1 µM [inhibitor, partial curve]
COc1cc(OC)cc(C(=O)NCC(=O)OCC(=O)N2c3ccccc3NC(=O)C2(C)C)c1 22.4 µM [inhibitor, single point]
CC1CCCCC1NC(=O)COC(=O)c1c2c(nc3ccccc13)/C(=C/c1ccco1)CC2 (configuration not stated) 35.5 µM [inhibitor, single point]
COc1ccc(-c2nc(-c3cccc(C)c3)nc(N3CCN(C)CC3)c2C#N)cc1 3.98 µM [inhibitor, single point]
CCCCCCCCCn1c2c(c(=N)c3c1CCC3)CCCC2 18.9 µM [inhibitor, partial curve]
c1csc(-c2nnc3ccccn23)c1 28.2 µM [inhibitor, partial curve]
Cc1ccc(Oc2nc(-c3ccccc3)ncc2S(=O)(=O)c2ccc(C)cc2)cc1 22.4 µM [inhibitor, single point]
CS(=O)(=O)N(CCc1ccccc1)CC(=O)N1CCN(Cc2ccccc2)CC1 39.8 µM [inhibitor, single point]
CSc1nc(-c2ccccc2)nn1C(=O)c1ccc(Cl)cc1 39.8 µM [inhibitor, single point]
O=C(N/N=C/c1[nH]c2ccccc2c1Cl)c1cccc(Br)c1 39.8 µM [inhibitor, single point]
COc1ccc2oc3ccc(OC)cc3c(=O)c2c1 7.08 µM [inhibitor, single point]
Cc1cccc(/C=N/c2sc3c(c2C#N)CCN(Cc2ccccc2)C3)c1O 28.2 µM [inhibitor, single point]
O=C(NC(C(=O)c1ccccc1)N1CCOCC1)c1cccs1 (configuration not stated) 28.2 µM [inhibitor, partial curve]
C=CCNc1nc(-c2c(C)nc3sccn23)cs1 39.8 µM [inhibitor, single point]
CCOC(=O)C1CCCn2c1nc1sc3c(c1c2=O)CCCC3 (configuration not stated) 22.4 µM [inhibitor, single point]
COc1ccc2c(c1)[nH]c1c(=O)n(CCCn3ccnc3)cnc12 0.355 µM [inhibitor, full curve]
O=C1N=C(N2CCCCC2)S/C1=C\c1cn[nH]c1-c1ccccc1 25.1 µM [inhibitor, partial curve]
CC(=O)c1nc2ccccc2n1S(=O)(=O)c1ccc(Cl)cc1 35.5 µM [inhibitor, partial curve]
Cc1cc2oc(=O)cc(CN3CCCCC3)c2cc1C(C)C 22.4 µM [inhibitor, single point]
Cc1cc(C)nc(Nc2cc([N+](=O)[O-])ccc2C)n1 31.6 µM [inhibitor, partial curve]
O=C(Nc1ccc(N2CCCC2)c(Cl)c1)c1ccco1 39.8 µM [inhibitor, single point]
O=C(CCC1CCCC1)N1CCN(C(=O)COc2ccccc2)CC1 22.4 µM [inhibitor, single point]
COc1cccc(C(=O)NC(C)C(c2cccs2)N2CCOCC2)c1 (configuration not stated) 39.8 µM [inhibitor, single point]
Cc1ccccc1-c1c(C)oc2cc(O)ccc2c1=O 25.1 µM [inhibitor, partial curve]
COc1ccc(N2CCN(C(=O)CSc3ccccc3)CC2)cc1 39.8 µM [inhibitor, single point]
Cc1ccc(C(=O)Nc2ccc(-c3csc(C)n3)cc2)cc1 37.7 µM [inhibitor, single point]
O=C(NCCN1CCOCC1)C1CCN(S(=O)(=O)N2CCCCC2)CC1 39.8 µM [inhibitor, single point]
COc1ccc(/C=N/NC(=O)c2cccc([N+](=O)[O-])c2)cc1OS(=O)(=O)c1ccccc1 3.16 µM [inhibitor, full curve]
COc1ccc(NC(=O)CN2CCN(CC(=O)Nc3ccccc3Cl)CC2)c(OC)c1 39.8 µM [inhibitor, single point]
Cc1sc(N)c(C(=O)c2ccccc2Cl)c1C 39.8 µM [inhibitor, single point]
CCOc1cc2c(C#N)c(N3CCCCC3)nc(N)c2c(N)n1 25.1 µM [inhibitor, partial curve]
CC[C@@H](C)[C@H](NS(=O)(=O)c1cccc2ccccc12)C(=O)N[C@H](C=O)Cc1c[nH]c2ccccc12 39.8 µM [inhibitor, single point]
O=S(=O)(NC1CCN(Cc2ccccc2)CC1)c1cccc(S(=O)(=O)N2CCOCC2)c1 22.4 µM [inhibitor, single point]
CCOC(=O)c1cc(-c2ccc(/C=N\n3cnnc3)o2)ccc1Cl 31.6 µM [inhibitor, partial curve]
O=C(NC1CCCC1)C(c1ccco1)N(Cc1ccccc1)C(=O)c1csnn1 (configuration not stated) 39.8 µM [inhibitor, single point]
CC1CCN(c2oc(-c3ccccc3F)nc2C#N)CC1 31.6 µM [inhibitor, partial curve]
Cc1ccc(-n2ncc3c2ncn2c(C)nnc32)cc1C 35.5 µM [inhibitor, single point]
CCOC(=O)c1c(NC(=O)C(F)(OC)C(F)(F)F)sc(C(=O)N2CCCCC2)c1C (configuration not stated) 25.1 µM [inhibitor, single point]
Cc1ccc(CNC(=O)CCNS(=O)(=O)c2cccc3nonc23)cc1 31.6 µM [inhibitor, single point]
Cc1ccc(S(=O)(=O)NC(C)(C)CSc2ccccn2)cc1 25.1 µM [inhibitor, single point]
N#C/C(=C\c1ccc(-c2ccc(C(=O)O)cc2)o1)C(=O)NCC1CCCO1 (configuration not stated) 39.8 µM [inhibitor, single point]
Cc1cc(C)cc(Nc2ncc3c(n2)CC(c2ccco2)CC3=O)c1 (configuration not stated) 39.8 µM [inhibitor, single point]
COc1cccc(-c2csc(N3CCN(C(=S)Nc4ccccc4C)CC3)n2)c1 39.8 µM [inhibitor, single point]
Cc1cc(-n2c(=O)c(C#N)cc3c(=O)n4ccccc4nc32)no1 31.6 µM [inhibitor, partial curve]
CCOC(=O)C(Cc1c(F)cccc1Cl)c1ccnc2nc(N)nn12 (configuration not stated) 39.8 µM [inhibitor, partial curve]
CCN(CC)CC(=O)NCC1(c2ccccc2)CCOCC1 39.8 µM [inhibitor, single point]

activity, negative = inhibition, inactive:
Cc1ccc(S(=O)(=O)Nc2ccccc2C=O)cc1 6.21% [at 13.5 µM]
Cc1cccc(NCc2ccccc2O)c1 -29.5%
COCCCNC(=O)CNC(=S)N(Cc1ccccc1)Cc1cccnc1 2.06%
O=c1c2ccccc2nc(SCc2cccc(F)c2)n1C1CCCC1 3.95%
CCOC(=O)c1c(C)[nH]c(N=Nc2cccc(OC)c2)c1C 2.85%
COc1ccccc1CNc1ncnc2ccc(-c3cccnc3)cc12 -6.45%

— PubChem BioAssay AID1030 (National Center for Advancing Translational Sciences (NCATS), 2008)
